Experimental data published in the supplement of paper PMC3334620.
The full ranking holds about 33,000 sequences; the median of “E-score (-0.5 to 0.5)” is about -0.01, and the highest 2% start at about 0.26. The list shows a part of the results.

The sequences below were run against Ste12 (UniProt P13574) (assay: PBM E-score (8-mer binding enrichment) (E-score (-0.5 to 0.5)); higher = stronger / more preferred TF binding; most listed sequences are background and not binding sites). Conditions: protein concentration: 200 nM; construct: GST-DNA-binding domain.
Procedure: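 Universal 'all 10-mer' protein binding microarrays (Agilent AMADID 015681) probed with GST-tagged S. cerevisiae TFs (full-length or DBD) made by in vitro transcription/translation (PURExpress), about 100-200 nM. Bound TF was detected with fluorescent anti-GST. Each ungapped 8-mer (which stands for itself and its reverse complement) is scored by the PBM enrichment score (E-score), a modified Wilcoxon-Mann-Whitney statistic from -0.5 to +0.5, computed with the Universal PBM Analysis Suite. Scale: above 0.35 generally sequence-specific binding.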

| Sequence | PBM E-score |
| --- | --- |
| CGGACGGC | -0.171 |
| AAGTAATG | 0.24 |
| ATAAATAC | 0.25 |
| GTAAAGCA | 0.0765 |
| CCGGGCCA | 0.0191 |
| GACCCGTA | -0.101 |
| CTGAGTGC | -0.0331 |
| CTACTAAA | -0.0115 |
| CTTGGTTA | 0.052 |
| CAGTCGGA | 0.014 |
| AGATCTAC | -0.00067 |
| ATAGATGC | -0.131 |
| GCGGGCGA | 0.0932 |
| AAGTTTTG | 0.116 |
| CGAAACGA | 0.205 |
| ATGCATAC | -0.0221 |
| CTTCCCCC | -0.111 |
| ACTCGGCC | -0.0192 |
| CATGCCAA | 0.0279 |
| ATGAAAGA | 0.184 |
| AACTCCCG | -0.0391 |
| TTACTCAA | 0.0705 |
| CCACGAAA | 0.125 |
| CCCTCCCG | 0.0504 |
| GAGCCATC | -0.0779 |

| Sequence | PBM E-score |
| --- | --- |
| AAAGCGCA | -0.123 |
| CTAAAATA | 0.181 |
| CGACTCCG | -0.128 |
| TGGGCAAA | 0.0174 |
| AAATAATC | 0.171 |
| ACGCGTTC | 0.17 |
| CCTTTACC | 0.102 |
| CGATTGCG | -0.188 |
| ACTTGATA | 0.0654 |
| CTGCGCCC | -0.239 |
| AGTTGCAG | 0.016 |
| GTTAGTAA | -0.0275 |
| AAGACTTG | 0.00623 |
| ATGTAGTG | -0.0846 |
| GTTATAAA | 0.218 |
| CTCACAGA | 0.00059 |
| CCGGACGC | 0.106 |
| ACAAAACA | 0.191 |
| AGTGGTGA | 0.0584 |
| AGCCATAG | -0.273 |
| ACAAGATG | -0.114 |
| ATTCGCAG | 0.158 |
| ACAAGGAG | -0.0128 |
| AAGTTAGA | 0.191 |
| CGAGATAG | -0.213 |

| Sequence | PBM E-score |
| --- | --- |
| TAATCCGA | -0.0463 |
| CTTAAAAG | -0.0909 |
| AGCGCGAG | -0.0135 |
| AAGCCACG | 0.0581 |
| CCATACAC | 0.167 |
| AAATTGGC | 0.0478 |
| AACGGCTG | -0.0742 |
| ACATCGAG | -0.0993 |
| TTGTAAAA | 0.315 |
| GCGTTAAC | -0.106 |
| CTTTATGC | 0.0465 |
| ACCTGTAA | 0.0557 |
| CCCAGTAA | -0.0435 |
| TCGAAGAA | 0.106 |
| ACAGAAAT | 0.132 |
| ACCAGAAA | 0.142 |
| AGGCTCAT | -0.0542 |
| CCCTCCAA | -0.0867 |
| ACTATCTG | -0.104 |
| AAGTGCAT | -0.201 |
| CGAATTTA | 0.123 |
| GCAATGTA | 0.0248 |
| ACCCCTGC | -0.206 |
| TAGGCATA | -0.111 |
| GCATTGGC | -0.302 |

| Sequence | PBM E-score |
| --- | --- |
| CACTTTGA | -0.032 |
| GAGGGCCC | -0.133 |
| AAGCGCCT | 0.147 |
| AACCGCGG | 0.147 |
| CTGAGTTA | -0.157 |
| TATTATGA | 0.225 |
| GCCTGCCC | -0.208 |
| TGGTACAA | 0.0368 |
| ACTAATCC | 0.0285 |
| ATTGGATC | -0.0185 |
| CGGGAGGC | -0.0823 |
| ATTTGTAG | 0.127 |
| ATCACGTA | 0.0346 |
| GCCACACC | 0.0355 |
| CCTACAAC | 0.0568 |
| GCACGTCA | -0.35 |
| AGCCGGCA | -0.0302 |
| CATGTTAG | -0.0804 |
| ATGATTTG | 0.0048 |
| ACCAAAGC | 0.0814 |
| AGGGTGGG | 0.35 |
| ACGCGTGC | 0.102 |
| AGAGCGAT | -0.219 |
| ATCTCAGG | 0.088 |
| AGCCAACA | 0.0636 |

| Sequence | PBM E-score |
| --- | --- |
| AGCGATAC | 0.0969 |
| CAGATAGG | -0.0192 |
| CAGAAAAG | 0.186 |
| AAATCTCC | -0.168 |
| AAGTCGAT | -0.0447 |
| CTGAATAC | 0.158 |
| TCATGCAA | 0.0709 |
| AGCCCCAA | -0.216 |
| CCACACTA | 0.145 |
| CCTATGTC | -0.0854 |
| AATCCAGC | -0.221 |
| GATACCCC | -0.118 |
| ACTCATCT | -0.085 |
| CTGGAGAA | -0.134 |
| CAATTCGG | 0.103 |
| CCCCCTAG | -0.318 |
| ACGCGCAG | -0.138 |
| GAAATCGC | 0.0144 |
| AACTGTTC | 0.0188 |
| AAGGGGAT | 0.144 |
| ATATTCGC | 0.145 |
| GTCCGAGA | 0.0473 |
| CACATCGA | -0.125 |
| CAAAGTTG | -0.104 |
| AAGAACAT | 0.0441 |

| Sequence | PBM E-score |
| --- | --- |
| GGCCAAAC | -0.066 |
| CATTGGCA | -0.0155 |
| AGTCTTGG | -0.0521 |
| CGGCTAGC | -0.122 |
| TCCCCGCA | 0.187 |
| AACTCACT | -0.0984 |
| ACACAACT | 0.161 |
| AGCATTGA | -0.0755 |
| AGGGAGCA | -0.292 |
| TTCGTAAA | 0.143 |
| AGCTCATA | 0.0357 |
| GCCTAGCC | -0.117 |
| CGTGACCA | -0.014 |
| CTGTAGGA | -0.0813 |
| AAGAGGCG | -0.126 |
| AGAGCCAC | 0.0432 |
| AAGCACTT | -0.0574 |
| GCCCGTGA | -0.0628 |
| CGGTAACA | 0.193 |
| CCTAGATA | -0.208 |
| GCGAGCCC | -0.137 |
| AATAGTCG | 0.0368 |
| AAGCGGTG | -0.238 |
| CAAATAAA | 0.1 |
| GTGCGGGA | -0.12 |

| Sequence | PBM E-score |
| --- | --- |
| ACGCGCCT | 0.046 |
| GTGGACTA | -0.0385 |
| GGCAGGCA | -0.204 |
| CCTCAAGC | -0.0822 |
| AAAACGTT | 0.257 |
| ACCGGATA | -0.0813 |
| CAATAGTC | -0.0383 |
| CCCATGAC | -0.0141 |
| AAGGTATT | 0.0751 |
| CCGCACGA | -0.124 |
| ATAGCACG | -0.118 |
| CTAATGAG | 0.137 |
| ATGTTACC | 0.175 |
| GTGATCAA | -0.0907 |
| AGTGCGCG | -0.0282 |
| GGTGCACA | -0.142 |
| ATCGAAAG | 0.0602 |
| AAACATTT | 0.249 |
| AAGACAGA | 0.174 |
| TATATAGA | 0.207 |
| AGGTGCGG | -0.115 |
| GTTCGAAC | 0.0685 |
